{"source": "PubChem BioAssay AID504832", "about": "(National Center for Advancing Translational Sciences (NCATS), 2011)", "note": "The whole screen tested about 310,000 compounds, of which about 18,000 (5.8%) were called active. This list was built around the results that the source calls inconclusive (neither active nor inactive); the mix of calls is not that of the screen. Calls come from the whole dose curve; as a rule, active = well fitted inhibition curve with a large enough effect; inconclusive = small, poorly fitted or top-dose-only effect, or another doubt; inactive = no such curve, though single readings can be large or run the other way. No potency is given beside an inconclusive call; the fits are too rough. Potency is the fitted concentration of half-maximal effect; tags give direction and shape of the fitted curve.", "data": [{"assay": "Primary qHTS for delayed death inhibitors of the malarial parasite plastid, 48 hour incubation", "conditions": "P. falciparum luciferase growth in erythrocytes; series mostly up to 28.7 µM", "in_short": "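Read-out is firefly luciferase luminescence from an integrated reporter in P. falciparum, so falling signal marks reduced parasite growth. Infected erythrocytes were at 2% hematocrit and 0.1% parasitemia (final) in Albumax-supplemented RPMI 1640.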", "values": [{"smiles": "Cc1cc2cc(CNC(=O)c3ccc(S(=O)(=O)N4CCCCC4)cc3)ccc2[nH]1", "Potency": "inconclusive [inhibitor, partial curve]"}, {"smiles": "CCCCCOC(=O)CSc1nc2c(c(=O)[nH]c(=O)n2C)n1Cc1ccc(Cl)cc1", "Potency": "inconclusive [inhibitor, single point]"}, {"smiles": "Cc1cccc(C(=O)Nc2ccc(Oc3cnccn3)cc2)c1", "Potency": "inactive"}, {"smiles": "CCOc1ccccc1NC(=O)CCC(=O)Nc1ccc2nc(N3CCN(C)CC3)cc(C)c2c1", "Potency": "inconclusive [inhibitor, partial curve, poor fit]"}, {"smiles": "O=C1CC2(CCN(C(=O)c3ccccc3Cl)CC2)Oc2ccccc21", "Potency": "inactive"}, {"smiles": "c1ccc(CCNc2ncnc3c2nnn3Cc2ccccc2)cc1", "Potency": "inconclusive [inhibitor, single point]"}, {"smiles": "Cc1nnc(N/N=C/c2cccs2)[nH]c1=O", "Potency": "inconclusive [inhibitor, single point]"}, {"smiles": "COc1cccc(N2C(=O)CN(Cc3cc(OC)c(OC)c(OC)c3)C2=S)c1", "Potency": "active: 0.329 µM"}, {"smiles": "CCCOc1ccc(C2c3c(oc4ccccc4c3=O)C(=O)N2CCN(CC)CC)cc1OC", "note": "(stereo not drawn)", "Potency": "active: 1.47 µM"}, {"smiles": "CCCCN(C(=O)CC1CCCCC1)c1c(N)n(CC(C)C)c(=O)[nH]c1=O", "Potency": "inconclusive [inhibitor, single point]"}, {"smiles": "CCOc1cc(C2NCc3ccccc3-n3cccc32)ccc1OC", "note": "(stereo not drawn)", "Potency": "inconclusive [inhibitor, single point]"}, {"smiles": "O=c1c2sccc2nc(SCc2cc(=O)n3cc(Cl)ccc3n2)n1-c1ccc(F)cc1", "Potency": "inactive"}, {"smiles": "COc1ccc(-n2nc(C(=O)NCC(=O)N(C)Cc3ccccc3)c3ccccc3c2=O)cc1OC", "Potency": "inconclusive [inhibitor, full curve]"}, {"smiles": "OC(CNC1CCCCC1)CNC1CCCCC1", "Potency": "inconclusive [inhibitor, single point]"}, {"smiles": "COCCN1C(=O)NC(=O)/C(=C\\c2ccc(F)cc2)C1=O", "Potency": "inactive"}, {"smiles": "O=C(Nc1ccc(O)c(-c2nc3ccccc3o2)c1)C1(c2ccc(Cl)cc2)CCCC1", "Potency": "active: 2.33 µM"}, {"smiles": "COc1ccc(CC(=O)Nc2ccc(S(=O)(=O)N3CCCC3)cc2)c(OC)c1", "Potency": "inconclusive [inhibitor, single point]"}, {"smiles": "CC1(C)Cc2c(c(N3CCCC3)nc3sc4c(N5CCNCC5)ncnc4c23)CO1", "Potency": "inconclusive [inhibitor, single point]"}, {"smiles": "CCc1sc(NC(=O)CCC(=O)O)nc1-c1cc2ccccc2oc1=O", "Potency": "inactive"}, {"smiles": "COc1ccc(OCC(=O)OCC(=O)NCC2CCCCC2)cc1", "Potency": "inactive"}, {"smiles": "CCc1cccc(C)c1NC(=O)CN1CCN(S(=O)(=O)c2ccc(C(C)(C)C)cc2)CC1", "Potency": "active: 1.65 µM"}, {"smiles": "O=C(NCC1CCCO1)C(c1cccs1)N(Cc1ccccc1)C(=O)c1ccc(-c2ccccc2)[nH]1", "note": "(stereo not drawn)", "Potency": "inconclusive [inhibitor, single point]"}, {"smiles": "CCOCCCN1C(=O)CN(C2CCCCC2)C(=O)C1c1ccc(OC)c(OC)c1", "note": "(stereo not drawn)", "Potency": "inactive"}, {"smiles": "CC(C(=O)Nc1cccc([N+](=O)[O-])c1)N1CCN(C/C=C/c2ccccc2)CC1", "note": "(stereo not drawn)", "Potency": "inconclusive [inhibitor, single point]"}, {"smiles": "CCOC(=O)C1=C(C)N=c2s/c(=C\\c3ccc(O)c([N+](=O)[O-])c3)c(=O)n2C1c1ccccc1OC", "note": "(stereo not drawn)", "Potency": "inconclusive [inhibitor, partial curve]"}, {"smiles": "COc1cc(NC(=O)c2cc3nc(C4CC4)cc(C(F)(F)F)n3n2)c(OC)cc1Cl", "Potency": "inconclusive [inhibitor, partial curve, poor fit]"}, {"smiles": "Clc1cc(Cl)cc(CN2CCSCC2)c1", "Potency": "inconclusive [inhibitor, partial curve, poor fit]"}, {"smiles": "O=C(Nc1nc(-c2cccs2)c(-c2cccs2)s1)C1CCCC1", "Potency": "inactive"}, {"smiles": "NC(=O)c1cc(S(=O)(=O)N2CCCC2)ccc1OCCOc1ccccc1F", "Potency": "inconclusive [inhibitor, single point]"}, {"smiles": "Cc1ccccc1-c1nc(CN2CCC(C(=O)NCCCN3CC(C)CC(C)C3)CC2)c(C)o1", "note": "(stereo not drawn)", "Potency": "inconclusive [inhibitor, full curve]"}, {"smiles": "O=[N+]([O-])c1cc(-c2nc(-c3ccncc3)no2)cc([N+](=O)[O-])c1", "Potency": "inconclusive [inhibitor, single point]"}, {"smiles": "CC(Sc1nc(-c2ccccc2)cc(C(F)(F)F)n1)C(=O)N1CCC(C(N)=O)CC1", "note": "(stereo not drawn)", "Potency": "inconclusive [inhibitor, single point]"}, {"smiles": "COc1ccc(CC2(C)OC(c3ccccc3)=NN2C(C)=O)cc1", "note": "(stereo not drawn)", "Potency": "inconclusive [inhibitor, partial curve, poor fit]"}, {"smiles": "O=C(Nc1ccc(Cl)cn1)C1CC1", "Potency": "inactive"}, {"smiles": "COc1ccc2[nH]c(C(=O)NCCCn3ccnc3)cc2c1", "Potency": "inconclusive [inhibitor, single point]"}, {"smiles": "Cc1cc(C)c2c(NC(=O)CCl)nn(C)c2n1", "Potency": "active: 3.7 µM"}, {"smiles": "COc1ccc(NC(=O)CN2CCN(CC(=O)Nc3ccccc3F)CC2)c(OC)c1", "Potency": "inactive"}, {"smiles": "O=C(Cn1cncn1)N/N=C/c1cc([N+](=O)[O-])ccc1O", "Potency": "inconclusive [inhibitor, single point]"}, {"smiles": "O=C(C#Cc1ccccc1)Nc1cccc(F)c1", "Potency": "inconclusive [inhibitor, partial curve, poor fit]"}, {"smiles": "FC(F)(F)c1cnc(C(c2ccccn2)c2ncn[nH]2)c(Cl)c1", "note": "(stereo not drawn)", "Potency": "active: 11.7 µM"}, {"smiles": "Cc1cc(C(=O)Nc2c[nH]c(=O)[nH]c2=O)ccc1[N+](=O)[O-]", "Potency": "inconclusive [inhibitor, single point]"}, {"smiles": "COc1ccc(S(=O)(=O)N=C2C=C(C)C(=O)C(C)=C2)cc1", "Potency": "inconclusive [inhibitor, partial curve, poor fit]"}, {"smiles": "Cc1ccc(-c2nn(-c3cc(N4CCNCC4)ccc3[N+](=O)[O-])c(=O)c3ccccc23)cc1", "Potency": "inconclusive [inhibitor, partial curve, poor fit]"}, {"smiles": "Cc1cc(C)cc(NC(=O)COC(=O)CCn2c(C)csc2=O)c1", "Potency": "inactive"}, {"smiles": "COc1ccccc1NC(=O)Nc1sccc1-c1nc2ccccc2s1", "Potency": "inconclusive [inhibitor, partial curve]"}, {"smiles": "COc1cccc(-c2nc3c(c(SCC(=O)N4CCOCC4)n2)Cc2c(CO)cnc(C)c2O3)c1", "Potency": "inconclusive [inhibitor, partial curve]"}, {"smiles": "Cc1ccc(NC(=O)CN(C)C(C)C(=O)N2CC(C)CC(C)C2)cc1", "note": "(stereo not drawn)", "Potency": "inconclusive [inhibitor, partial curve, poor fit]"}, {"smiles": "Cc1cc(C)c(C(=O)CSc2nnc(N)s2)cc1C", "Potency": "inactive"}, {"smiles": "COc1cc(CNn2nnnc2N)ccc1OCc1c(Cl)cccc1Cl", "Potency": "inconclusive [inhibitor, partial curve, poor fit]"}, {"smiles": "Cc1cccc(C)c1NC(=O)CN1CCN(CCCC(c2ccc(F)cc2)c2ccc(F)cc2)CC1", "Potency": "active: 11.7 µM"}, {"smiles": "CS(=O)(=O)N1CCN(C(=O)CSc2ccccc2)CC1", "Potency": "inactive"}, {"smiles": "CCOc1cc2c(cc1OCC)-n1cccc1C(c1cccc(OCC)c1O)NC2", "note": "(stereo not drawn)", "Potency": "active: 14.7 µM"}, {"smiles": "O=C(NCc1ccc2c(c1)OCO2)c1c(O)nc2sccn2c1=O", "Potency": "inconclusive [inhibitor, single point]"}, {"smiles": "O=C(NCCCN1CCCC1)[C@H](CSCc1ccccc1)N1Cc2ccccc2C1=O", "Potency": "inconclusive [inhibitor, partial curve]"}, {"smiles": "CC1=CC2/C=C(\\C)CCC(O)C(O)/C=C/C(=O)C23C(=O)NC(CC(C)C)C3C1C", "note": "(stereo not drawn)", "Potency": "inconclusive [inhibitor, partial curve, poor fit]"}, {"smiles": "NC1=NC(=O)/C(=C/c2cccc(F)c2)S1", "Potency": "inactive"}, {"smiles": "CCOc1ccc(C(C)=O)cc1CN1C(=O)C(=O)N(CC)C1=O", "Potency": "inconclusive [inhibitor, partial curve]"}, {"smiles": "CCSCCOC(=O)C1=C(C)N(C)C(=O)NC1c1cc(OC)ccc1OC", "note": "(stereo not drawn)", "Potency": "inconclusive [inhibitor, partial curve, poor fit]"}, {"smiles": "O=c1[nH]c(=O)n(-c2ccccc2)c(O)c1/C=C1/C(c2ccccc2)=Nc2ccccc21", "Potency": "inconclusive [inhibitor, single point]"}, {"smiles": "COc1cccc(NC(=O)[C@@H]2CCCN2S(=O)(=O)c2cccc3cccnc23)c1", "Potency": "inconclusive [inhibitor, single point]"}, {"smiles": "CC(=O)Oc1cccc(C(=O)Nc2ccc(NC(=O)c3cccs3)cc2)c1", "Potency": "inactive"}, {"smiles": "Cc1ccc(NC(=O)c2ccccc2OCc2c(C)noc2C)cc1S(=O)(=O)N(C)C", "Potency": "inconclusive [inhibitor, single point]"}, {"smiles": "O=C(COC(=O)Cc1c[nH]c2ccccc12)NC1CCS(=O)(=O)C1", "note": "(stereo not drawn)", "Potency": "inactive"}, {"smiles": "O=C1CN(c2cc(Cl)cc(Cl)c2)C(=O)CN1/N=C/c1cccnc1", "Potency": "inconclusive [inhibitor, partial curve, poor fit]"}, {"smiles": "O=C(Cn1c(C(=O)NCC2CCCO2)cc2sccc21)c1ccccc1", "note": "(stereo not drawn)", "Potency": "inactive"}, {"smiles": "COC(=O)c1scc(C)c1NC(=O)C(Cl)c1ccccc1", "note": "(stereo not drawn)", "Potency": "inconclusive [inhibitor, single point]"}, {"smiles": "C=CCn1c(SCC(=O)N2CCc3ccccc3C2)nc2sc(CC)cc2c1=O", "Potency": "inconclusive [inhibitor, partial curve]"}, {"smiles": "O=C(c1nnsc1S(=O)c1ccc(Cl)cc1)N1CCOCC1", "note": "(stereo not drawn)", "Potency": "active: 16.5 µM"}]}]}
